# Inconclusive means that the source gave no clear call. Such entries were picked first, then a sample of the others. Activity calls are given as the source filed them.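 The calls were made as follows: active = viability at or under a set limit in both replicates, limit being median viability minus 3 SD (cut at about 48% in these data, passing the limit was not always enough); inconclusive = at or under the limit in just one replicate; inactive = at or above the limit in both replicates.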
# Experiment: H69AR cell proliferation blockers – human, duplicate replicates, primary screen (AID 580);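 also: 100% = mean luminescence of untreated wells and 0% = no signal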
# Conditions: H69AR lung tumor cells viability, ATP luminescence, 72 h; at 10 µM; active compounds read low
row,SMILES,viability
1,COC(=O)c1ccccc1S(=O)(=O)N(Cc1cc2cc3c(cc2[nH]c1=O)OCO3)C1CCCCC1,inconclusive: 60%
2,COc1ccc(CCn2c(-c3ccco3)nc3ccccc3c2=O)cc1OC,inconclusive: 52.8%
3,CSc1ccc(-c2cc(=O)c3ccccc3o2)cc1,inconclusive: 56.9%
4,Cc1ccc(-n2ncc3c(Nc4c(C)n(C)n(-c5ccccc5)c4=O)ncnc32)c(C)c1,inactive: 92.3%
5,CC(=O)c1ccccc1Oc1nc(CN2CCOCC2)nc2scc(-c3cccs3)c12,inconclusive: 49.9%
6,CCOC(=O)Nc1c(O)ccc2oc(C)c(-c3ccccc3)c12,inactive: 99.8%
7,Cc1[nH]nc2c1C1(C(=O)N(Cc3ccc(Cl)cc3)c3ccccc31)C(C#N)=C(N)O2 (stereo not given),inconclusive: 52.2%
8,CCOC(=O)c1[nH]c(C)c(C(=O)Nc2ccc(Cl)cc2)c1C,inactive: 85.9%
9,COc1ccc(-c2nnc(SCC(=O)N3CCCCC3)o2)cc1OC,inactive: 97.5%
10,Cc1cc(C(=O)COC(=O)CCc2nc3ccccc3s2)c(C)n1C,inactive: 101%
11,CCOC(=O)Nc1ccc2c(c1)N(C(=O)CCN1CCOCC1)c1ccccc1S2,inconclusive: 64.7%
12,CCCSc1ccc2nc(NC(=O)OC)[nH]c2c1,inconclusive: 20.3%
13,COc1ccc(Br)cc1C1N2CC3(C)CN1CC(C)(C2)C3=O (stereo not given),inconclusive: 54.3%
14,CCc1cc2c(=O)c(-c3ccc4c(c3)OCCO4)coc2cc1OC(=O)c1ccco1,inconclusive: 50.5%
15,COc1ccc(CC(=O)NCc2cccs2)cc1,inconclusive: 60.5%

# Source: PubChem BioAssay
